Source: patent publication US4228292A, “N-Substituted benzothiazolines and benzoxazolines and their use as herbicides and plant growth regulants” (Monsanto Company, priority 1978, dated 1980)
“And” between values parts separate entries of the source, which are not always exact repeats. Identical values can stand only once. At least one read-out could not be matched to a standard name with certainty. Some ranges recur; such a range may be that of the whole group of compounds.

Tests used:
Type in all cases: in vivo
Canada Thistle [1] = experiment: pre-emergent herbicidal test; settings: A, 5.6 kg/h
Cocklebur [2] = experiment: pre-emergent herbicidal test; settings: B
Velvetleaf [3] = experiment: pre-emergent herbicidal test; settings: C
Morning Glory [4] = experiment: pre-emergent herbicidal test; settings: D
Lambsquarters [5] = experiment: pre-emergent herbicidal test; settings: E
Smartweed [6] = experiment: pre-emergent herbicidal test; settings: F
Nutsedge [7] = experiment: pre-emergent herbicidal test; settings: G, 5.6 kg/h
Quackgrass [8] = experiment: pre-emergent herbicidal test; settings: H, 5.6 kg/h
Johnson Grass [9] = experiment: pre-emergent herbicidal test; settings: I, 5.6 kg/h
Downy Brome [10] = experiment: pre-emergent herbicidal test; settings: J
Barnyard Grass [11] = experiment: pre-emergent herbicidal test; settings: K
Canada Thistle [12] = experiment: post-emergent herbicidal test; settings: A, 5.6 kg/h
Cocklebur [13] = experiment: post-emergent herbicidal test; settings: B, 5.6 kg/h
Velvetleaf [14] = experiment: post-emergent herbicidal test; settings: C, 5.6 kg/h
Morning Glory [15] = experiment: post-emergent herbicidal test; settings: D, 5.6 kg/h
Lambsquarters [16] = experiment: post-emergent herbicidal test; settings: E, 5.6 kg/h
Smartweed [17] = experiment: post-emergent herbicidal test; settings: F, 5.6 kg/h
Nutsedge [18] = experiment: post-emergent herbicidal test; settings: G, 5.6 kg/h
Quackgrass [19] = experiment: post-emergent herbicidal test; settings: H, 5.6 kg/h
Johnson Grass [20] = experiment: post-emergent herbicidal test; settings: I, 5.6 kg/h
Downy Brome [21] = experiment: post-emergent herbicidal test; settings: J, 5.6 kg/h
Barnyard Grass [22] = experiment: post-emergent herbicidal test; settings: K, 5.6 kg/h

COC(=N)Cn1c(=O)sc2cc(Br)ccc21 [Compound 33]
pre-emergent herbicidal rating (Canada Thistle [1]; 4 WAT): 1 (25-49) | pre-emergent herbicidal rating (Cocklebur [2]; 0.28 kg/h, 2 WAT): 0 (0-24) | pre-emergent herbicidal rating (Cocklebur [2]; 1.12 kg/h, 2 WAT): 1 (25-49) | pre-emergent herbicidal rating (Cocklebur [2]; 5.6 kg/h, 4 WAT): 1 (25-49) | pre-emergent herbicidal rating (Velvetleaf [3]; 1.12 kg/h, 2 WAT): 0 (0-24) | pre-emergent herbicidal rating (Velvetleaf [3]; 5.6 kg/h, 4 WAT): 1 (25-49) | pre-emergent herbicidal rating (Morning Glory [4]; 0.28 kg/h, 2 WAT): 0 (0-24) | pre-emergent herbicidal rating (Morning Glory [4]; 1.12 kg/h, 2 WAT): 0 (0-24) | pre-emergent herbicidal rating (Lambsquarters [5]; 0.28 kg/h, 2 WAT): 0 (0-24) | pre-emergent herbicidal rating (Lambsquarters [5]; 1.12 kg/h, 2 WAT): 0 (0-24) | pre-emergent herbicidal rating (Lambsquarters [5]; 5.6 kg/h, 4 WAT): 2 (50-74) and 1 (25-49) | pre-emergent herbicidal rating (Smartweed [6]; 0.28 kg/h, 2 WAT): 0 (0-24) | pre-emergent herbicidal rating (Smartweed [6]; 1.12 kg/h, 2 WAT): 0 (0-24) | pre-emergent herbicidal rating (Smartweed [6]; 5.6 kg/h, 4 WAT): 1 (25-49) | pre-emergent herbicidal rating (Nutsedge [7]; 4 WAT): 0 (0-24) | pre-emergent herbicidal rating (Quackgrass [8]; 4 WAT): 2 (50-74) | pre-emergent herbicidal rating (Johnson Grass [9]; 4 WAT): 0 (0-24) | pre-emergent herbicidal rating (Downy Brome [10]; 0.28 kg/h, 2 WAT): 0 (0-24) | pre-emergent herbicidal rating (Downy Brome [10]; 1.12 kg/h, 2 WAT): 0 (0-24) | pre-emergent herbicidal rating (Downy Brome [10]; 5.6 kg/h, 4 WAT): 0 (0-24) | pre-emergent herbicidal rating (Barnyard Grass [11]; 0.28 kg/h, 2 WAT): 0 (0-24) | pre-emergent herbicidal rating (Barnyard Grass [11]; 1.12 kg/h, 2 WAT): 0 (0-24) | pre-emergent herbicidal rating (Barnyard Grass [11]; 5.6 kg/h, 4 WAT): 0 (0-24) | post-emergent herbicidal rating (Canada Thistle [12]; 4 WAT): 2 (50-74) | post-emergent herbicidal rating (Cocklebur [13]; 4 WAT): 2 (50-74) | post-emergent herbicidal rating (Velvetleaf [14]; 4 WAT): 1 (25-49) | post-emergent herbicidal rating (Morning Glory [15]; 4 WAT): 2 (50-74) | post-emergent herbicidal rating (Lambsquarters [16]; 4 WAT): 3 (75-99) | post-emergent herbicidal rating (Smartweed [17]; 4 WAT): 2 (50-74) | post-emergent herbicidal rating (Nutsedge [18]; 4 WAT): 0 (0-24) | post-emergent herbicidal rating (Quackgrass [19]; 4 WAT): 1 (25-49) | post-emergent herbicidal rating (Johnson Grass [20]; 4 WAT): 0 (0-24) | post-emergent herbicidal rating (Downy Brome [21]; 4 WAT): 0 (0-24) | post-emergent herbicidal rating (Barnyard Grass [22]; 4 WAT): 1 (25-49)

COC(=N)C(C)n1c(=O)sc2cc(Br)ccc21 (stereo not drawn) [Compound 34]
pre-emergent herbicidal rating (Canada Thistle [1]; 4 WAT): 1 (25-49) | pre-emergent herbicidal rating (Cocklebur [2]; 5.6 kg/h, 4 WAT): 1 (25-49) | pre-emergent herbicidal rating (Velvetleaf [3]; 5.6 kg/h, 4 WAT): 0 (0-24) | pre-emergent herbicidal rating (Morning Glory [4]; 5.6 kg/h, 4 WAT): 1 (25-49) | pre-emergent herbicidal rating (Lambsquarters [5]; 5.6 kg/h, 4 WAT): 0 (0-24) | pre-emergent herbicidal rating (Smartweed [6]; 5.6 kg/h, 4 WAT): 0 (0-24) | pre-emergent herbicidal rating (Nutsedge [7]; 4 WAT): 0 (0-24) | pre-emergent herbicidal rating (Quackgrass [8]; 4 WAT): 0 (0-24) | pre-emergent herbicidal rating (Johnson Grass [9]; 4 WAT): 0 (0-24) | pre-emergent herbicidal rating (Downy Brome [10]; 5.6 kg/h, 4 WAT): 0 (0-24) | pre-emergent herbicidal rating (Barnyard Grass [11]; 5.6 kg/h, 4 WAT): 0 (0-24) | post-emergent herbicidal rating (Canada Thistle [12]; 4 WAT): 4 (100) | post-emergent herbicidal rating (Cocklebur [13]; 4 WAT): 2 (50-74) | post-emergent herbicidal rating (Velvetleaf [14]; 4 WAT): 1 (25-49) | post-emergent herbicidal rating (Morning Glory [15]; 4 WAT): 2 (50-74) | post-emergent herbicidal rating (Lambsquarters [16]; 4 WAT): 4 (100) | post-emergent herbicidal rating (Smartweed [17]; 4 WAT): 0 (0-24) | post-emergent herbicidal rating (Nutsedge [18]; 4 WAT): 0 (0-24) | post-emergent herbicidal rating (Quackgrass [19]; 4 WAT): 0 (0-24) | post-emergent herbicidal rating (Johnson Grass [20]; 4 WAT): 0 (0-24) | post-emergent herbicidal rating (Downy Brome [21]; 4 WAT): 0 (0-24) | post-emergent herbicidal rating (Barnyard Grass [22]; 4 WAT): 0 (0-24)

COC(=N)Cn1c(=O)oc2ccccc21 [Compound 35]
pre-emergent herbicidal rating (Canada Thistle [1]; 2 WAT): 0 (0-24) | pre-emergent herbicidal rating (Cocklebur [2]; 5.6 kg/h, 2 WAT): 0 (0-24) | pre-emergent herbicidal rating (Velvetleaf [3]; 5.6 kg/h, 2 WAT): 0 (0-24) | pre-emergent herbicidal rating (Morning Glory [4]; 5.6 kg/h, 2 WAT): 0 (0-24) | pre-emergent herbicidal rating (Lambsquarters [5]; 5.6 kg/h, 2 WAT): 0 (0-24) | pre-emergent herbicidal rating (Smartweed [6]; 5.6 kg/h, 2 WAT): 0 (0-24) | pre-emergent herbicidal rating (Nutsedge [7]; 2 WAT): 0 (0-24) | pre-emergent herbicidal rating (Quackgrass [8]; 2 WAT): 0 (0-24) | pre-emergent herbicidal rating (Johnson Grass [9]; 2 WAT): 0 (0-24) | pre-emergent herbicidal rating (Downy Brome [10]; 5.6 kg/h, 2 WAT): 0 (0-24) | pre-emergent herbicidal rating (Barnyard Grass [11]; 5.6 kg/h, 2 WAT): 0 (0-24) | post-emergent herbicidal rating (Canada Thistle [12]; 2 WAT): 0 (0-24) | post-emergent herbicidal rating (Cocklebur [13]; 2 WAT): 0 (0-24) | post-emergent herbicidal rating (Velvetleaf [14]; 2 WAT): 0 (0-24) | post-emergent herbicidal rating (Morning Glory [15]; 2 WAT): 1 (25-49) | post-emergent herbicidal rating (Lambsquarters [16]; 2 WAT): 0 (0-24) | post-emergent herbicidal rating (Smartweed [17]; 2 WAT): 0 (0-24) | post-emergent herbicidal rating (Nutsedge [18]; 2 WAT): 0 (0-24) | post-emergent herbicidal rating (Quackgrass [19]; 2 WAT): 0 (0-24) | post-emergent herbicidal rating (Johnson Grass [20]; 2 WAT): 0 (0-24) | post-emergent herbicidal rating (Downy Brome [21]; 2 WAT): 0 (0-24) | post-emergent herbicidal rating (Barnyard Grass [22]; 2 WAT): 1 (25-49)
